Reference: patent publication US12708676B2, “Phosphate compounds for detecting neurological disorders” (Amydis, Inc., priority 2018, dated 2026)

Key:
aggregated Aβ = aggregated Aβ (Homo sapiens, UniProt P05067); test: Fluorescent detection of Aβ in vitro; format: binding
Aβ plaques = Aβ plaques (Homo sapiens, UniProt P05067); test: Example 7: ex vivo staining of human Alzheimer's disease tissue, co-localization with 6E10; details: post-mortem hippocampal sections, familial Alzheimer's disease patient
Method: Ex Vivo Analysis with Human Alzheimer's Disease Tissue: Post-mortem retinal tissue and brains of humans with confirmed or probable Alzheimer's disease were obtained (University of Miami, FL). This study was conducted to determine 1) if there is a correlation between amyloidosis in the brain and retinas of Alzheimer's disease patients, and 2) if compounds as disclosed herein could identify patients with amyloid accumulation in the brain through fluorescence inspection of retinas as a method for diagnosing patients with Alzheimer's disease.
A co-localization experiment was conducted on brain tissue from a patient diagnosed with familial Alzheimer's disease. Free floating sections from the post-mortem hippocampal region of this patient were stained with an Aβ sequence specific antibody (6E10) along with Compound 7. […] One limitation of 6E10, is that it recognizes a specific sequence of amino acids rather than the aggregation of Aβ which explains the fluorescence of both dense core plaques and other diffuse objects observed in FIGS. 6B and C.

[1] = target: amyloid deposits associated with CAA (Homo sapiens, UniProt P05067); test: Example 8: ex vivo staining of human CAA brain tissue; format: binding; details: median frontal cortex sections
From the text: Post-mortem brain tissue from patients diagnosed with CAA were examined to de-risk the translation from the limited robust preclinical animal models to humans. This study was designed to understand the fundamental basis of fluorescently detecting amyloids using human tissue. […] Human CAA brain tissue and healthy control brain tissue was acquired (University of California, San Diego, CA). […] All CAA patients were female and ranged in age from 70-93 years. Control brains were obtained from cognitively normal patients that ranged in age from 82-94 years from both male and female donors.

## N#C/C(=C\c1ccc2cc(N3CCCCC3)ccc2c1)C(=O)NCCOCCOCCO [Compound 7, (E)-2-cyano-N-(2-(2-(2-hydroxyethoxy)ethoxy)ethyl)-3-(6-(piperidin-1-yl)naphthalen-2-yl)acrylamide]
Aggregated Aβ
  Fluorescent detection of Aβ40 in vitro: fluorescently detect Aβ40 in vitro
Aβ plaques
  Binding to dense core plaques of Aβ: binds to objects consistent in size and morphology to dense core plaques of Aβ
  Co-localization with 6E10: co-localized with the immunoreactivity of 6E10 dense core amyloid plaques
[1]
  Co-localization with 6E10: co-localized with the immunoreactivity of 6E10 in CAA-laden plaques within the vessels
